# The other results are listed elsewhere or left out.
# System: S. aureus RN4220
# Assay: growth inhibition call (relative growth <= 0.2)
# Conditions: 50 µM
row,Compound,growth inhibition call
1,Cc1noc(C)c1S(=O)(=O)N(C)C[C@H]1Oc2ccc(NC(=O)CCCN(C)C)cc2C(=O)N([C@H](C)CO)C[C@H]1C,inactive
2,NCCc1ccc(O)c(O)c1,inactive
3,CO[C@H]1CN(C)C(=O)c2cc(NS(C)(=O)=O)ccc2OC[C@@H](C)N(C(=O)CN(C)C)C[C@H]1C,inactive
4,C[C@@H]1CCCCO[C@H](CN(C)C(=O)Nc2ccc3c(c2)OCO3)[C@H](C)CN([C@H](C)CO)C(=O)c2cc(NS(=O)(=O)c3ccc(F)cc3)ccc2O1,inactive
5,C[C@H]1CN([C@@H](C)CO)C(=O)c2cccc(NC(=O)Nc3ccc(C(F)(F)F)cc3)c2O[C@@H]1CN(C)S(=O)(=O)c1ccc(Cl)cc1,inactive
6,COc1ccc(S(=O)(=O)Nc2cccc3c2O[C@@H](CN(C)S(=O)(=O)c2c(C)noc2C)[C@H](C)CN([C@@H](C)CO)C3=O)cc1,inactive
7,C[C@@H]1CCCCO[C@@H](CN(C)S(=O)(=O)c2cn(C)cn2)[C@@H](C)CN([C@@H](C)CO)C(=O)c2cc(NS(C)(=O)=O)ccc2O1,inactive
8,COc1ccc2c(c1)OCC(Cc1ccc(OC)c(OC)c1)C2=O (stereo not given),inactive
9,C[C@H](CO)N1C[C@H](C)[C@H](CN(C)S(=O)(=O)c2cn(C)cn2)Oc2c(NC(=O)c3ccc(-c4nccs4)cc3)cccc2C1=O,inactive
10,C[C@H](CO)N1C[C@H](C)[C@@H](CN(C)Cc2ccc3c(c2)OCO3)Oc2ccc(NS(C)(=O)=O)cc2CC1=O,inactive
11,CN1C(C)(C)CCCC1(C)C,inactive
12,CC(=O)N/C=C1\C(=O)N(C)C(=O)C(C#N)=C1C,inactive
13,C[C@@H]1CCCCO[C@@H](CN(C)C(=O)c2ccccc2)[C@@H](C)CN([C@H](C)CO)C(=O)c2cc(NC(=O)Nc3ccc4c(c3)OCO4)ccc2O1,inactive
14,NS(=O)(=O)Cc1ccccc1F,inactive
15,C[C@H]1CN([C@@H](C)CO)C(=O)c2cc(C#Cc3ccccc3F)cnc2O[C@@H]1CN(C)C(=O)Cc1cccnc1,inactive
16,C[C@H]1CN([C@@H](C)CO)C(=O)c2cc(NS(=O)(=O)c3ccc(Cl)cc3)ccc2O[C@@H]1CN(C)Cc1ccc(C(=O)Nc2ccccc2N)cc1,inactive
17,COC1=C2C[C@@H](C)C[C@H](OC)[C@H](O)[C@@H](C)/C=C(\C)[C@H](OC(N)=O)[C@@H](OC)/C=C/C=C(\C)C(=O)NC(=CC1=O)C2=O,inactive
18,N#CC1(C#N)[C@H](c2ccccc2)[C@@H]1C(N)=O,inactive
19,C[C@H]1CN([C@@H](C)CO)C(=O)c2cccc(NC(=O)C3CCCCC3)c2O[C@H]1CN(C)C(=O)Nc1cccc2ccccc12,inactive
20,C[C@@H]1CN([C@H](C)CO)C(=O)Cc2cc(NS(C)(=O)=O)ccc2O[C@H]1CN(C)C(=O)Nc1ccc(F)cc1,inactive

row,Compound,growth inhibition call
1,CN(C)CCCNC(=O)C[C@@H]1CC[C@@H]2[C@H](COC[C@@H](O)CN2S(=O)(=O)c2ccccc2)O1,inactive
2,CO[C@H]1O[C@H](CO)[C@@H](OC(=O)Nc2ccc(Br)cc2)[C@@H]2OC(=O)[C@H](Cc3cccc(Br)c3)C/C=C/C[C@@H](Cc3cccc(Br)c3)C(=O)O[C@@H]12,inactive
3,C[C@H]1CN([C@@H](C)CO)S(=O)(=O)c2ccc(-c3ccc(C#N)cc3)cc2O[C@H]1CN(C)C(=O)CN(C)C,inactive
4,COc1cccc(S(=O)(=O)N(C)C[C@H]2OCc3cnnn3CCCC(=O)N([C@H](C)CO)C[C@@H]2C)c1,inactive
5,C[C@H](CO)N1C[C@H](C)[C@H](CN(C)S(=O)(=O)c2ccc(F)cc2)Oc2c(NS(=O)(=O)c3cn(C)cn3)cccc2C1=O,inactive
6,Cc1noc(C)c1S(=O)(=O)Nc1ccc2c(c1)C(=O)N([C@H](C)CO)C[C@H](C)[C@H](CN(C)C(=O)Nc1ccc3c(c1)OCO3)O2,inactive
7,C[C@H]1CN([C@@H](C)CO)C(=O)CCCn2cc(nn2)CO[C@H]1CN(C)S(=O)(=O)c1ccc2ccccc2c1,inactive
8,C[C@@H]1CN([C@H](C)CO)C(=O)c2cc(C#CC3(O)CCCC3)cnc2O[C@H]1CN(C)C(=O)Cc1ccncc1,inactive
9,Cc1ccc(S(=O)(=O)N2CCN(CC(=O)N/N=C/c3ccccn3)CC2)cc1,inactive
10,C[C@H](CO)N1C[C@H](C)[C@H](CN(C)S(=O)(=O)c2ccc(C#N)cc2)Oc2ncc(-c3ccc(F)cc3)cc2C1=O,inactive
11,C=CC[C@H](CC(=O)N(CCO)Cc1ccccc1)C(=O)N[C@H](COC(=O)[C@@H](CC=C)Cc1ccc(F)cc1)C(C)(C)C,inactive
12,C[C@H]1CN([C@@H](C)CO)C(=O)c2cccc(NC(=O)C3CCOCC3)c2O[C@H]1CN(C)C(=O)Nc1ccccc1,inactive
13,COc1ccc(C[C@H](N)C(=O)N[C@H]2[C@@H](O)[C@@H](n3cnc4c(N(C)C)ncnc43)O[C@@H]2CO)cc1,active
14,C[C@H](CO)N1C[C@H](C)[C@@H](CN(C)Cc2ccccc2)OCCCC[C@H](C)Oc2ccc(NC(=O)Nc3ccc(F)cc3)cc2C1=O,inactive
15,C[C@@H]1CCCCO[C@@H](CN(C)C(=O)CCC(F)(F)F)[C@@H](C)CN([C@H](C)CO)C(=O)c2cc(NC(=O)NC3CCCCC3)ccc2O1,inactive
16,Cl.Nc1c(Br)cc(Br)cc1CNC1CCC(O)CC1 (stereo not given),inactive
17,C[C@H](C(=O)N(C)C[C@@H]1OCc2ccccc2-c2c(n(C)c3ccccc23)C(=O)N([C@@H](C)CO)C[C@H]1C)c1ccccc1,inactive
18,Cc1nc(=O)c2c([nH]1)CCSC2,inactive
19,C[C@H](CO)N1C[C@H](C)[C@H](CN(C)C(=O)Nc2ccccc2)Oc2ccc(NC(=O)CCCCCC(=O)Nc3ccccc3N)cc2CC1=O,inactive
20,COc1ccc2c3c([nH]c2c1)[C@H](CO)N(CC1CCCC1)C[C@]13CCN(CC1)C(=O)c1ccc(cc1)F,inactive

# — the antibiotic and cytotoxicity screens of Wong et al. (2023)
